Measurements taken from PubChem BioAssay AID1508624 (National Center for Advancing Translational Sciences (NCATS), 2021).
Among all 48,000 compounds or so, about 120 (0.25%) were called active. About 4% were inconclusive and are not listed. The call rests on the fitted dose curve; in most records, active means well fitted activation curve with a large enough effect; inconclusive means small, poorly fitted or top-dose-only effect, or another doubt; inactive means no such curve, though single readings can be large or run the other way. The list shows a part of the results.

test: Primary qHTS for Identification of Small Molecule Activators of Huntingtin-Antisense Promoter Activity; settings: HEK293 HTT-AS promoter firefly luciferase reporter, 24 h; series mostly up to 57.5 µM; activity change, positive = activation: at the top concentration; further: nearly all actives have a fitted effect of over 55% in size
Summary of the method: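 Firefly luciferase readout (Dual-Glo, 10 min RT) after 24 h, 37 °C compound exposure (final up to 57.5 uM) of HEK293 reporter cells cultured 24 h beforehand; PTC124 at 50 uM final as control inhibitor; activity scaled vehicle 0%, zero RLU -100%.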

Activity change, positive = activation, inactive:
Cc1ccc(-c2cnc(C3CC3)o2)cc1S(=O)(=O)Nc1ccc(F)cc1Cl -29.9%, CCOc1ccc(NC(=O)c2cnn3c2NC(C)=C(C(=O)Nc2ccc(Cl)cc2)C3c2ccc(OC)c(OC)c2)cc1 (centres undefined) -10.2%, CCOC(=O)c1ccc(O)cc1 13.1%, COc1ccc(N(C)C(=O)c2oc(=O)c3ccccc3c2-c2ccc(C)cc2)c(OC)c1 -35.1%, N#Cc1c(-n2ncnc2-c2ccccc2Cl)sc2c1CCCCC2 -16.9%, O=C(CCC1N=C2c3ccccc3N=C(SCc3ccc(F)cc3)N2C1=O)N1CCN(c2ccccc2)CC1 (centres undefined) -4.78%, COc1ccc(N2CCN(C(=O)CCCCn3c(=O)[nH]c4ccsc4c3=O)CC2)cc1 -18.4%, Clc1ccc(-c2nc3ncccn3c2Nc2ccc3c(c2)OCCO3)cc1 2.84%, CC(C)c1ccc(CNC(=O)c2ccc(N3CCCC3)c(NC(=O)NCc3ccc(F)cc3)c2)cc1 -8.44%, CCOC(=O)C1CCN(C(c2ccc(C)cc2)c2sc3nc(-c4ccco4)nn3c2O)CC1 (centres undefined) -4.7%, CCOc1ccc(/C=C(\C#N)C(=O)Nc2sc3c(c2C(=O)OC)CCC3)cc1OC -1.08%, Cc1cccc(Nc2cc(C)nc3nc(-c4ccccc4)nn23)c1 -22.1%, CC1=C(C(=O)Nc2cccc(F)c2)C2(CCCCC2)OC1=O -18.2%, CCOCCCNC(=O)CN1C(=O)COc2ccc(S(=O)(=O)N3CCOCC3)cc21 -0.074%, COc1ccc(-c2cc(C(F)(F)F)nc(SCCC(=O)Nc3ccc(F)cc3F)n2)cc1 -14.4%, CC(=O)c1ccc(NC(=O)CSc2nnc3c(n2)[nH]c2ccccc23)cc1 -17.4%, O=C(CSc1ccc2nc(-c3ccccc3)cn2n1)Nc1ccccc1 -88.3%, O=C(Nc1ccc(F)cc1F)c1ccc(-n2cnc3cccnc32)cc1 12.5%, Cc1nc(-c2ccc(F)cc2)sc1CCNC(=O)c1ccccc1C(F)(F)F -12.4%, Cc1ccc2oc(C(=O)NCC(c3ccc(Cl)cc3)N3CCOCC3)c(C)c2c1 (centres undefined) -25.1%, Cc1ccc(CNC(=O)c2cc3c(=O)n4cccc(C)c4nc3s2)cc1 3.64%, Cc1ccc(CNC(=O)CN2C(=O)C3CCCCN3c3ccc(C(=O)N(C)C)cc32)cc1 (centres undefined) -4.31%, COc1ccccc1NC(=O)CN1C(=O)C(C)(C)c2ccccc21 -10.4% [at 11.5 µM, percent change from vehicle, -100% = no light], CC1=C(C(=O)Nc2ccccc2C)C(c2sccc2C)n2ncnc2N1 (centres undefined) -12.6%, Cc1ccc(S(N)(=O)=O)cc1NC(=O)c1c(-c2c(Cl)cccc2Cl)noc1C -9.81%, Cc1cccc(CSc2ncc(Cl)c(C(=O)Nc3nnc(C)s3)n2)c1 -23%, Cc1ccc(-c2nc(CCNC(=O)C(=O)Nc3ccc(C)c(Cl)c3)cs2)cc1 0.415%, COc1ccccc1C(=O)Nc1ccccc1C(=O)OCc1cc(=O)n2ccsc2n1 4.46%, CCOC(=O)c1sc(NC(=O)c2nc3nc(C)cc(C(F)F)n3n2)c(C(=O)OC(C)C)c1C 3.53%, CCCOc1ccc(CNC(=O)CCCN2C(=O)CSc3c2c(C)nn3-c2ccccc2)cc1 -24.2%, CC(C)(C)NC(=O)[C@@H]1CN(Cc2cccnc2)CCN1C[C@@H](O)C[C@@H](Cc1ccccc1)C(=O)N[C@H]1c2ccccc2C[C@H]1O -11.5%, CCOc1ccccc1NC(=O)CSc1nc2cc(OC)c(OC)cc2c2nc(CCn3c(C)nc4ccccc43)nn12 -7.54%, N#Cc1cccc(NC(=O)C2CCN(S(=O)(=O)c3ccc4c(c3)CCCN4C(=O)C3CCC3)CC2)c1 -26%, CCCN(CCC)C(=O)Cn1c(SCc2cccc(F)c2)nc2cccnc21 -9.29%, CCCS(=O)(=O)c1c(S(=O)(=O)CCC)c2cc(C(C)(C)C)ccn2c1C(=O)c1ccc(C)cc1 -21%, COc1ccc(Nc2nnc(-c3cc4cc(Cl)ccc4oc3=O)s2)cc1 11%, CCC(C)NC(=O)c1ccc(Cn2c(=O)c3cccn3c3cccnc32)cc1 (centres undefined) 2.25%, COc1cccc(CN2C(=O)c3ccccc3C2C(=O)NCCc2ccccc2)c1 (centres undefined) -5.56%, COc1cc(SC)ccc1C(=O)N1CCn2c3c(c4cc(C)ccc42)CCCC31 (centres undefined) -10.1%, COc1ccccc1CNC(=O)CSc1nc2nc(C)c(Cc3ccccc3C)c(C)n2n1 -16.3%, O=C(NCc1ccc(Cl)cc1)C1CCN(C(=O)c2cnn(-c3ccccc3)c2-n2cccc2)CC1 -39.4%, O=C(CCCCCn1c(=O)[nH]c2ccsc2c1=O)NCc1ccccc1 -5.26%, CCOc1ccc(CNC(=O)Cn2nc(N3CCN(c4ccccc4)CC3)ccc2=O)cc1 -26.4%, Oc1c(C(c2cccc(Br)c2)N2CCCC2)sc2nc(-c3ccco3)nn12 (centres undefined) -19.9%, Cc1ccc(/C=C/c2onc(C)c2S(=O)(=O)N2CCC(C(=O)Nc3cccc(C#N)c3)CC2)cc1 -44.7%, CCN(CC)CCNC(=O)CN1C(=O)CSc2ccc(S(=O)(=O)N3CCOCC3)cc21 -3.71%, CCOC(=O)COc1ccc(CC)cc1C(=O)c1ccn2nc(-c3ccc(C)cc3)cc2n1 -37.2%, Cc1ccccc1CSc1nc2c([nH]c3ccccc32)c(=O)n1-c1ccccc1 -20.4%, CCc1nnc2c(NCc3ccccc3)nc3ccccc3n12 -5.82%, O=C(NCCCN1CCN(c2ccccc2F)CC1)c1ccc2nc(Cc3ccccc3)oc2c1 -27.9%, Cc1ccc(C(=O)N2CCN(c3ccccc3)CC2)cc1NC(=O)c1nsc2ccccc12 -6.64%, N#Cc1c(C(F)(F)F)cc(-c2cccs2)nc1SCC(=O)Nc1cccc(Br)c1 -21.6%, CC(C)c1ccc(NC(=O)C2CCCN(S(=O)(=O)c3ccc4[nH]c(=O)oc4c3)C2)cc1 (centres undefined) -15.1%, CCN(CC)S(=O)(=O)c1ccc2c(c1)c(=O)c(C(=O)N1CCN(c3ccc(OC)cc3)CC1)cn2C -11%, CCc1ccccc1NC(=O)c1nc2nc(C)cc(C(F)F)n2n1 -0.174%, Cc1ccc(CNC(=O)CN2N=C(c3ccc(C)cc3)CCC2=O)cc1 -3.53%, CCCN(CCC)CCCNC(=O)Cn1ncn2c(cc3sc(CC)cc32)c1=O 2.98%, Cn1c(-c2cccc(Br)c2)cnc1NCc1cccc(F)c1 -23.4%, COc1ccc2cc1Oc1ccc(cc1)C[C@H]1c3c(cc4c(c3Oc3cc5c(cc3OC)CCN(C)[C@@H]5C2)OCO4)CCN1C -13.6%, Cc1cccc(-c2nnc(SCC(=O)Nc3ccc(C)c(C)c3)o2)c1 -17.5%, Cc1ccc(OCC(=O)N(Cc2ccc(N(C)C)cc2)CC2CCCO2)cc1C (centres undefined) -13.2%, O=C(c1cccc([N+](=O)[O-])c1)N1c2nc(-c3ccco3)nn2C2(CCCCC2)[C@@H]2CCCC[C@@H]21 -31%, COc1ccc(-c2cc(C(F)(F)F)nc(SCC(=O)N3CCCCC3)n2)cc1 -3.41%, CCCC(=O)c1cc2c(cc1NC(=O)c1ccccc1F)OCCO2 -13.3%, CCCCOc1ccc(NC(=O)c2cc3c(n(-c4ccc(Cl)cc4)c2=O)CCCC3=O)cc1 -4.98%, Cc1ccc(CNC(=O)CCCn2c(=O)c3ccccc3n(Cc3ccccc3Cl)c2=O)cc1 -14.7%, COc1cccc(CNC(=O)C2CCCN(S(=O)(=O)c3ccc4c(ccn4C)c3)C2)c1OC (centres undefined) -17.4%, O=C(Cn1c(=O)n(CCCS(=O)(=O)C2CCCCC2)c(=O)c2ccccc21)Nc1ccccc1F -4.99%, Cc1cc(C(=O)Nc2cccc(C(F)(F)F)c2)c2c(C)nn(-c3cccc(F)c3)c2n1 -84.8%, Cc1nn2c3c(cnc2c1-c1ccc(F)cc1)C(=O)CC(c1ccccc1)C3 (centres undefined) -3.31%, CC(=O)Nc1ccc(NC(=O)CC(C)n2ccc(C)n2)cc1 (centres undefined) -8.69%, O=S(=O)(NCCc1csc2nc(-c3ccc(F)cc3)nn12)c1ccc2c(c1)OCCO2 -38%, Cc1cc(C)c(-c2csc(-c3cc4ccccc4oc3=O)n2)cc1C 0.652%, CCCN1CCN(CCNC(=O)Nc2cc(Cl)c(OC)cc2OC)CC1 -11.5%, Cc1cccc(N2C(=O)C(CC(=O)Nc3ccccc3)N(C3CCCCC3)C2=O)c1 (centres undefined) 3.24%, COc1cccc(C(=O)Nc2nc3nc(C)c(Cc4ccccc4)c(=O)n3[nH]2)c1 -6.68%, Cn1c(=O)c2[nH]c(Br)nc2n(C)c1=O -6.57%, CCOC(=O)c1c(C)[nH]c(C)c1S(=O)(=O)N(C)CC(=O)N1CCN(c2cccc(C)c2C)CC1 -18.2%, Cc1nn(C)c2c1c(-c1ccccc1)cc(=O)n2Cc1ccc(Br)cc1F -3.1%, CCOC(=O)c1c(C)oc2nc(C)nc(NCCCN3CCN(c4ccccc4OC)CC3)c12 -16%, CCOc1ccc(C(=O)Nc2c(C)nc(Nc3ccccc3)nc2Nc2ccccc2)cc1OCC -22.2%, COc1ccc(C(=O)Cn2c(=O)n3nc(CCn4nc(C)cc4C)nc3c3cc(OC)c(OC)cc32)cc1 -3.07%, COc1ccc(COc2cc3oc(=O)c4cc(C(C)O)ccc4c3cc2OC)cc1 (centres undefined) -24.9%, COc1ccc(S(=O)(=O)Nc2c(C)n(C)n(-c3ccccc3)c2=O)cc1Br 5.39%, COc1ccc(CCNc2nc(-c3ccccc3OC)cc(C(F)(F)F)n2)cc1OC -44.9%, COc1ccccc1N1CCN(C(=O)CSc2nc(C)cc(=O)[nH]2)CC1 -9.38%, CC(C)Nc1cc(N2CCN(C3CCCCC3)CC2)c2noc3c2c1C(=O)c1ccccc1-3 -13%, CCOc1ccc(CNC(=O)C(C)n2ncn3cccc3c2=O)cc1 (centres undefined) -10.4%, CCOC(=O)c1[nH]c(C)c(CCC(=O)Nc2ccc(C)cc2Cl)c1C -8.11%, O=C(c1ccc(Br)cc1)N1CCC(c2nc3ccccc3s2)CC1 -11.2%, CCOc1ccccc1CNC(=O)C1=C(C)C(=O)OC12CCN(C(C)=O)CC2 -7.67%, CN1CCC(N(Cc2cccs2)c2ccccc2)CC1 -20.8%, O=C(NCCc1ccccc1)c1c2c(nc3ccccc13)C(=O)N(C1CCCCC1)C2 4.38%, Cc1oc(-c2cccc(Cl)c2)nc1CN1CCC(C(=O)NCc2ccc(F)cc2)CC1 -6.55%
